# Data as given in the supplement of paper PMC8728848.
# The other results are listed elsewhere or left out.
# B1: LecRKVI.2 (protein)
# chain: RTTTNFAFRGFNGNQSKIRIEGAAMIKPDGLLRLTDRKSNVTGTAFYHKPVRLLNRNSTNVTIRSFSTSFVFVIIPSSSSNKGFGFTFTLSPTPYRLNAGSAQYLGVFNKENNGDPRNHVFAVEFDTVQGSRDDNTDRIGNDIGLNYNSRTSDLQEPVVYYNNDDHNKKEDFQLESGNPIQALLEYDGATQMLNVTVYPARLGFKPTKPLISQHVPKLLEIVQEEMYVGFTASTGKGQSSAHYVMGWSFSSGGERPIADVLILSELPPPPPNKAKKEGLNS
# Columns and labels:
# Experiment in all cases: glycan array binding signal (z-score within array); higher = stronger binding
# Conditions in all cases: glycan notation: IUPAC condensed, linker removed
# [1] = target: Fuc(a1-3)[Gal(b1-4)]GlcNAc(b1-3)Gal(b1-4)[Fuc(a1-3)]GlcNAc
# Outline: (§1)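 Negative Z-scores can be read as non-binding. The Z-score is calculated within each array and then averaged across arrays of one protein sequence at different concentrations or buffers and across linkers. Arrays, 3228 in all, were curated from the Consortium for Functional Glycomics database and kept only where the protein sequence was available.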
# [2] = target: Fuc(a1-3)[Gal(b1-4)]GlcNAc(b1-3)Gal(b1-4)[Fuc(a1-3)]GlcNAc(b1-3)Gal(b1-4)[Fuc(a1-3)]GlcNAc
# Outline: as §1
# [3] = target: Fuc(a1-3)[Gal(b1-4)]GlcNAc(b1-3)GalNAc
# Outline: as §1
# [4] = target: Fuc(a1-3)[Gal(b1-4)]GlcNAc(b1-6)GalNAc
# Outline: as §1
# [5] = target: Fuc(a1-3)[Gal(b1-4)]GlcNAc(b1-6)[Gal(b1-3)GlcNAc(b1-3)]Gal(b1-4)Glc
# Outline: as §1
# [6] = target: Fuc(a1-3)[Gal(b1-4)]GlcNAc6S
# Outline: as §1
# [7] = target: Fuc(a1-3)[Gal3S(b1-4)]Glc
# Outline: as §1
# [8] = target: Fuc(a1-3)[Gal3S(b1-4)]GlcNAc
# Outline: as §1
# [9] = target: Fuc(a1-3)[Gal3S(b1-4)]GlcNAc6S
# Outline: as §1
# [10] = target: Fuc(a1-3)[GalNAc(b1-4)]GlcNAc
# Outline: as §1
# [11] = target: Fuc(a1-3)[GalNAc(b1-4)]GlcNAc6S
# Outline: as §1
# Fuc(a1-4)GlcNAc = target: Fuc(a1-4)GlcNAc
# Outline: as §1
# Fuc(b1-3)GlcNAc = target: Fuc(b1-3)GlcNAc
# Outline: as §1
# Gal(a1-2)Gal = target: Gal(a1-2)Gal
# Outline: as §1
# Gal(a1-3)Gal = target: Gal(a1-3)Gal
# Outline: as §1
# Gal(a1-3)Gal(b1-3)GlcNAc = target: Gal(a1-3)Gal(b1-3)GlcNAc
# Outline: as §1
# [12] = target: Gal(a1-3)Gal(b1-3)GlcNAc(b1-2)Man
# Outline: as §1
# [13] = target: Gal(a1-3)Gal(b1-3)GlcNAc(b1-2)Man(a1-3)[Gal(a1-3)Gal(b1-3)GlcNAc(b1-2)Man(a1-6)]Man(b1-4)GlcNAc(b1-4)GlcNAc
# Outline: as §1
# [14] = target: Gal(a1-3)Gal(b1-3)GlcNAc(b1-3)GalNAc
# Outline: as §1
# [15] = target: Gal(a1-3)Gal(b1-3)GlcNAc(b1-6)GalNAc
# Outline: as §1
# [16] = target: Gal(a1-3)Gal(b1-3)[Fuc(a1-4)]GlcNAc(b1-2)Man(a1-3)[Gal(a1-3)Gal(b1-3)[Fuc(a1-4)]GlcNAc(b1-2)Man(a1-6)]Man(b1-4)GlcNAc(b1-4)GlcNAc
# Outline: as §1
# Gal(a1-3)Gal(b1-4)Glc = target: Gal(a1-3)Gal(b1-4)Glc
# Outline: as §1
# Gal(a1-3)Gal(b1-4)GlcNAc = target: Gal(a1-3)Gal(b1-4)GlcNAc
# Outline: as §1
# [17] = target: Gal(a1-3)Gal(b1-4)GlcNAc(b1-2)Man
# Outline: as §1
# [18] = target: Gal(a1-3)Gal(b1-4)GlcNAc(b1-2)Man(a1-3)[Gal(a1-3)Gal(b1-4)GlcNAc(b1-2)Man(a1-6)]Man(b1-4)GlcNAc(b1-4)GlcNAc
# Outline: as §1
# [19] = target: Gal(a1-3)Gal(b1-4)GlcNAc(b1-3)GalNAc
# Outline: as §1
# [20] = target: Gal(a1-3)Gal(b1-4)GlcNAc(b1-6)GalNAc
# Outline: as §1
# [21] = target: Gal(a1-3)Gal(b1-4)[Fuc(a1-3)]GlcNAc
# Outline: as §1
# [22] = target: Gal(a1-3)Gal(b1-4)[Fuc(a1-3)]GlcNAc(b1-2)Man(a1-3)[Gal(a1-3)Gal(b1-4)[Fuc(a1-3)]GlcNAc(b1-2)Man(a1-6)]Man(b1-4)GlcNAc(b1-4)GlcNAc
# Outline: as §1
# Gal(a1-3)GalNAc = target: Gal(a1-3)GalNAc
# Outline: as §1
# [23] = target: Gal(a1-3)[Gal(a1-4)]Gal(b1-4)GlcNAc
# Outline: as §1
# [24] = target: Gal(a1-4)Gal(b1-3)GlcNAc(b1-2)Man(a1-3)[Gal(a1-4)Gal(b1-3)GlcNAc(b1-2)Man(a1-6)]Man(b1-4)GlcNAc(b1-4)GlcNAc
# Outline: as §1
# Gal(a1-4)Gal(b1-4)Glc = target: Gal(a1-4)Gal(b1-4)Glc
# Outline: as §1
# Gal(a1-4)Gal(b1-4)GlcNAc = target: Gal(a1-4)Gal(b1-4)GlcNAc
# Outline: as §1
# [25] = target: Gal(a1-4)Gal(b1-4)GlcNAc(b1-2)Man(a1-3)[Gal(a1-4)Gal(b1-4)GlcNAc(b1-2)Man(a1-6)]Man(b1-4)GlcNAc(b1-4)GlcNAc
# Outline: as §1
# [26] = target: Gal(a1-4)Gal(b1-4)GlcNAc(b1-3)Gal(b1-4)Glc
# Outline: as §1
# Gal(a1-4)GlcNAc = target: Gal(a1-4)GlcNAc
# Outline: as §1
# Gal(a1-6)Glc = target: Gal(a1-6)Glc
# Outline: as §1
binder,measurement,setting,value
B1,glycan array binding signal (z-score),[1],0.278
same,glycan array binding signal (z-score),[2],-0.444
same,glycan array binding signal (z-score),[3],-0.268
same,glycan array binding signal (z-score),[4],3.86
same,glycan array binding signal (z-score),[5],-0.384
same,glycan array binding signal (z-score),[6],-0.365
same,glycan array binding signal (z-score),[7],-0.379
same,glycan array binding signal (z-score),[8],-0.398
same,glycan array binding signal (z-score),[9],-0.339
same,glycan array binding signal (z-score),[10],-0.18
same,glycan array binding signal (z-score),[11],-0.386
same,glycan array binding signal (z-score),Fuc(a1-4)GlcNAc,1.29
same,glycan array binding signal (z-score),Fuc(b1-3)GlcNAc,-0.152
same,glycan array binding signal (z-score),Gal(a1-2)Gal,-0.441
same,glycan array binding signal (z-score),Gal(a1-3)Gal,-0.264
same,glycan array binding signal (z-score),Gal(a1-3)Gal(b1-3)GlcNAc,-0.36
same,glycan array binding signal (z-score),[12],-0.407
same,glycan array binding signal (z-score),[13],0.906
same,glycan array binding signal (z-score),[14],2.35
same,glycan array binding signal (z-score),[15],-0.02
same,glycan array binding signal (z-score),[16],2.66
same,glycan array binding signal (z-score),Gal(a1-3)Gal(b1-4)Glc,0.972
same,glycan array binding signal (z-score),Gal(a1-3)Gal(b1-4)GlcNAc,-0.382
same,glycan array binding signal (z-score),[17],-0.378
same,glycan array binding signal (z-score),[18],3.09
same,glycan array binding signal (z-score),[19],-0.278
same,glycan array binding signal (z-score),[20],-0.349
same,glycan array binding signal (z-score),[21],-0.338
same,glycan array binding signal (z-score),[22],0.465
same,glycan array binding signal (z-score),Gal(a1-3)GalNAc,-0.413
same,glycan array binding signal (z-score),[23],-0.211
same,glycan array binding signal (z-score),[24],5.85
same,glycan array binding signal (z-score),Gal(a1-4)Gal(b1-4)Glc,-0.229
same,glycan array binding signal (z-score),Gal(a1-4)Gal(b1-4)GlcNAc,-0.266
same,glycan array binding signal (z-score),[25],-0.337
same,glycan array binding signal (z-score),[26],-0.282
same,glycan array binding signal (z-score),Gal(a1-4)GlcNAc,-0.142
same,glycan array binding signal (z-score),Gal(a1-6)Glc,-0.426
